# Experimental data taken from PMC4336329 (PLoS ONE, 2015).
# Among all 310,000 compounds or so, about 2,200 (0.71%) showed an effect of 50% or more. Effects have a minus sign here. This is one part of the list.
# Biological target: human ether-à-go-go-related gene (hERG) potassium channel (human, UniProt Q12809)
# Test: primary screen, population patch clamp on CHO cells stably expressing hERG
# Sequence of human ether-à-go-go-related gene (hERG) potassium channel (Q12809 whole entry, looked up): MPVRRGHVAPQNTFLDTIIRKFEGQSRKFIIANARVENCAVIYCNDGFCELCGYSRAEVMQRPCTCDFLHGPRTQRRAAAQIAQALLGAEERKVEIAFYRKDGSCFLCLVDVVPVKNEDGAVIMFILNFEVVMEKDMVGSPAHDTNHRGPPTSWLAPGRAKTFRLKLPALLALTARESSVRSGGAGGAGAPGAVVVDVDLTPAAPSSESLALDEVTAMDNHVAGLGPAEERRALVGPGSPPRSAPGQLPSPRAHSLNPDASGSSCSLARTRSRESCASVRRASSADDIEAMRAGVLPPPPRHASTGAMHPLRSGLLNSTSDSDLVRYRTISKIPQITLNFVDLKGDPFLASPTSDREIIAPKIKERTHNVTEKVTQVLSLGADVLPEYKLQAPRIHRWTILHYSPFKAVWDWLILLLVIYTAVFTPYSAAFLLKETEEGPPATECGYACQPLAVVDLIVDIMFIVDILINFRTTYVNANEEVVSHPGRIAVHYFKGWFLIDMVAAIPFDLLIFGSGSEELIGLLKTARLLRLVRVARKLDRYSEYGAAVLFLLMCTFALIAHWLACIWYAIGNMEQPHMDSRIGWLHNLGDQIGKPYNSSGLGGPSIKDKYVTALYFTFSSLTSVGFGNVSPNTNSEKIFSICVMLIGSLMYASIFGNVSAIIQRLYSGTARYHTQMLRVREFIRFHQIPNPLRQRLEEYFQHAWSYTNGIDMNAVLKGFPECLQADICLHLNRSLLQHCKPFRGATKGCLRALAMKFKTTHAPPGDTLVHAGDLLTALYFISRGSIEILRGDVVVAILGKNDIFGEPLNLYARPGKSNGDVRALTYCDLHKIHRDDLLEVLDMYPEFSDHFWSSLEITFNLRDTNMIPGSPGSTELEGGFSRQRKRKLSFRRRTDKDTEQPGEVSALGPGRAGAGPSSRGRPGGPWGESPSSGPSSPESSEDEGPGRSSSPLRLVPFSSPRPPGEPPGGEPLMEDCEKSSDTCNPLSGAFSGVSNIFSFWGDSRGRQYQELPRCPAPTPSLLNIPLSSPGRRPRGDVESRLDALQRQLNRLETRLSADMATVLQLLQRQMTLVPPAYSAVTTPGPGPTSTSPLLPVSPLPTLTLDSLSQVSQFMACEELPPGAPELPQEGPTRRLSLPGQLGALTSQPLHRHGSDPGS
row,SMILES,"hERG current change (%, negative = inhibition) at 1uM [%]"
1,O=C(C[n+]1ccccc1)c1ccc(Cl)cc1.[I-],13.5
2,COC(=O)c1ccc(CSc2nc3ccccc3c(=O)n2C)o1,9.6
3,N#Cc1nc(-c2cccc3ccccc23)oc1NCCN1CCOCC1,0.449
4,Cc1cc(OCc2cc(C(=O)N3CCN(CC4CC4)CC3)no2)cc(C)c1Cl,17.3
5,O=C(COC(=O)CNC(=O)c1ccc(Cl)c([N+](=O)[O-])c1)NC(=O)CN1CCCC1=O,5.44
6,CC1CCN(CCCNC(=O)C2CC(=O)N(C3CCCCCC3)C2)CC1 (centres unmarked),17.8
7,O=C(N/N=C/c1ccccc1C(=O)O)c1cccc(S(=O)(=O)N2CCCCC2)c1,12.9
8,CC1(C)CC(NC(=O)C(c2ccccc2)c2ccccc2)CC(C)(C)N1,14.3
9,CCOc1ccccc1N1CN(CC)CNC1=S,0.0763
10,Cc1nc(C)n(CC(=O)N2CCCC(C(=O)c3cccc4ccccc34)C2)n1 (centres unmarked),9.26
11,CCOc1ccc(CN(CC)C(=O)c2ccc3c(c2)[nH]c(=O)c(=O)n3CC)cc1OC,3.93
12,Cc1cc(=O)[nH]c(N/N=C/c2c(F)c(F)c(F)c(F)c2F)n1,12.8
13,CCC(=O)Nc1ccc(SC#N)cc1C,11.1
14,O=C(O)CCC(=O)Nc1sc2c(c1C(=O)Nc1cccc3ccccc13)CCCCC2,3.36
15,C=CCOC(=O)CCC(=O)Nc1cccc2ccccc12,7.61
16,CN(C)CCCN(C(=O)c1ccc2c(c1)CCCC2)c1nc2ccc(Cl)cc2s1.Cl,3.37
17,COc1ccc(-c2cn3cc(C)ccc3n2)cc1F,12.3
18,CSc1cccc(NC(=O)CCCOc2ccc(Cl)cc2Cl)c1,13.9
19,CC(C)(O)C(=O)NNC(=S)Nc1ccc(F)c(Cl)c1,15.4
20,CCN(CC)S(=O)(=O)c1cccc(C(=O)OCC(=O)NC(C)c2ccccc2)c1 (centres unmarked),8.48
21,COc1cccc(S(=O)(=O)Nc2ccc(C(=O)N3CCOCC3)cc2)c1,6.75
22,O=C(C[n+]1ccn(-c2ccccc2)c1)c1ccc([N+](=O)[O-])cc1.[Br-],-30.2
23,Cc1cccc(CN(CC(=O)N/N=C/c2ccco2)S(=O)(=O)c2ccc(Cl)cc2)c1,7.12

row,SMILES,"hERG current change (%, negative = inhibition) at 1uM [%]"
1,COc1cccc(C(=O)NCC2CCCN2S(=O)(=O)c2ccccc2)c1 (centres unmarked),11.9
2,COc1ccc(N(CC(=O)O)S(=O)(=O)c2cccnc2)cc1,14.2
3,COc1cccc(-c2c(C(=O)N/N=C(\C)c3ccc(Cl)s3)nnn2-c2nonc2N)c1,16
4,Cc1nc2sccn2c1-c1csc(NCc2ccccc2)n1,-0.0684
5,Cc1ccc(NC(=O)COc2ccccc2C=O)cc1Cl,10.5
6,CC(=O)C1C(c2ccc([N+](=O)[O-])cc2)c2c(noc2C)CC1(C)O (centres unmarked),13.8
7,CCCc1cc(=O)[nH]c(/N=C(\N)Nc2ccccc2)n1,2
8,COc1ccc(/C=C/C(=O)NCCSCc2ccco2)cc1,5.37
9,CCOc1cc(N2CCOCC2)c(OCC)cc1NC(=O)CN1C(=O)NC(C)(C2CC2)C1=O (centres unmarked),11
10,Cc1nn2c(-c3ccccc3)ccnc2c1Br,10.3
11,Cc1ccc(NC(=S)N2CCC(c3nc4ccccc4s3)CC2)cc1,4.71
12,O=C(CN1CCSC1=O)N1CCN(S(=O)(=O)c2ccc(Cl)cc2)CC1,3.03
13,CCCSc1nc2cc(C)c(C)cc2n1CC(O)CO (centres unmarked),5.41
14,CC(C)[C@H](NC(=O)Nc1ccc(S(N)(=O)=O)cc1)C(=O)O,12.1
15,Cc1cc(C)c([N+](=O)[O-])cc1-c1ccc(/C=N/c2c(-c3ccco3)nc3ccccn23)o1,15.3
16,O=C(c1ccc(Cl)cc1)N1CCN(c2cccc3[nH]ccc23)CC1,8.3
17,S=c1[nH]nc(-c2ccccc2)n1CC1CCCO1 (centres unmarked),11.2
18,Cc1cccc(N2C(=O)N3[C@H](c4ccc(F)cc4)[C@@H]4C(=O)N(C5CCCCC5)C(=O)[C@@H]4[C@]3(Cc3ccc(Cl)cc3)C2=O)c1,13.3
19,O=C(Nc1nc(-c2cccs2)cs1)c1ccc(Cl)cc1,13
20,COc1ccc(NC(=O)c2onc(C)c2Cl)cc1,-5.54
21,CCC1Nc2ncnc(N3CCCCC3)c2N(Cc2ccccc2)C1=O.O=C(O)C(F)(F)F (centres unmarked),12.5
22,Cc1nc(N)sc1C(=O)OCC(C)C,5.91
23,CC1(C)CC2(CC(c3cccs3)c3cc(Cl)c(O)cc3O2)NC(=S)N1 (centres unmarked),1.42

row,SMILES,"hERG current change (%, negative = inhibition) at 1uM [%]"
1,Cc1ccc(CNC(=O)CSc2ncc(C(=O)Nc3ccccc3)c(=O)n2C)cc1,1.34
2,Oc1ccccc1/C=C/c1noc(-c2ccccc2O)n1,15.2
3,CCC(C(=O)NCCC1=CCCCC1)n1nc(C)c2c(C)n(-c3ccccc3)nc2c1=O (centres unmarked),-12.7
4,Cn1cnnc1SC(C(=O)c1ccccc1)c1ccccc1 (centres unmarked),6.79
5,CCSc1nnc(NC(=O)c2nc(-c3ccccc3)n(-c3ccccc3)n2)s1,0.632
6,NC(=S)Nc1cnc2ccccc2c1,15.6
7,CC(NC(=O)C1CCN(c2nnc(-n3cccc3)s2)CC1)C12CC3CC(CC(C3)C1)C2 (centres unmarked),-8.18
8,CCCCCCCCCCCC(=O)NC1CCS(=O)(=O)C1 (centres unmarked),-0.454
9,O=C(NCCCn1ccnc1)c1ccc2c(c1)OCCO2,8.13
10,CC1CCCN(c2nc3c(c(=O)n(C)c(=O)n3C)n2CCSc2nc3ccccc3s2)C1 (centres unmarked),3.35
11,c1ccc(-c2cc3c(-n4cccc4)ncnc3o2)cc1,0.768
12,O=C(C1CC(=O)N(C2CCCCCCC2)C1)N1CCC2(CC1)OCCO2 (centres unmarked),-12.2
13,COc1cc(-c2c(NC(=O)c3ccco3)oc3c(C)cccc3c2=O)cc(OC)c1OC,15.3
14,O=C(Nc1ccc(-n2nncc2-c2ccco2)cc1)c1cc2ccccc2oc1=O,11.8
15,COc1ccc(CCNC(=O)c2cc(CC(C)C)on2)cc1OC,1.47
16,Cc1ccc(CNc2ccc([N+](=O)[O-])cc2C(N)=O)cc1,16.2
17,CCOC(=O)N1CCN(S(=O)(=O)c2ccc(OC)c(Cl)c2)CC1,7.9
18,COc1cc(-c2cn[nH]c2N)cc(OC)c1OC,8.63
19,Cc1ccc(-c2nc(CS(=O)CC(=O)NCCN3CCCCC3C)c(C)o2)cc1 (centres unmarked),13.8
20,COc1ccccc1CCN=C(N)NS(=O)(=O)c1ccc(F)cc1,11.8
21,CN(Cc1cnc2nc(N)nc(N)c2n1)c1ccc(C(=O)N[C@@H](CCC(=O)O)C(=O)O)cc1,10.9
22,COc1ccc2c(c1)C(C)=CC(C)(C)N2C(=O)CSc1nnc(-c2ccc(C)cc2)o1,14.1
23,COc1ccccc1/C=C/C(=O)OCC(=O)c1c[nH]c2ccccc12,7.31

row,SMILES,"hERG current change (%, negative = inhibition) at 1uM [%]"
1,CN1CCc2nc(SCc3cccc(Br)c3)c(C#N)cc2C1,10.1
2,CCC1(C)Cc2c(sc(NC(=S)NC(=O)c3ccccc3)c2C#N)CO1 (centres unmarked),14.7
3,COc1ccc(NS(=O)(=O)c2cccc(C(=O)N3CCC3)c2)cc1,16.6
4,N#Cc1ccc(OCc2nnc(SCC(=O)c3ccccc3)n2-c2ccccc2)cc1,-20.5
5,O=C(NCc1cccnc1)c1ccccc1NS(=O)(=O)c1ccc(F)cc1F,13.9
6,Cc1nc(N2CCN(Cc3ccc(Cl)cc3)CC2)c2oc3ccccc3c2n1,11.2
7,Cn1cc(C(=O)C(=O)N2CCCc3ccccc32)c2ccccc21,12.3
8,COc1ccc(S(=O)(=O)n2c(CCN3CCOCC3)nc3ccccc32)cc1,-21.3
9,CCOc1ccc(NC(=O)CCN2C(=O)c3ccccc3C2=O)cc1,11.7
10,CC(C(=O)O)C(=O)O,23.5
11,CN(C)c1ccc(-n2cccc2/C=C/[N+](=O)[O-])cc1,5.61
12,CC(=O)Nc1ccc(S(=O)(=O)NCCNC(=O)c2ccccc2F)cc1,11.8
13,O=C1CC(N2CCC(c3nc4ccccc4s3)CC2)C(=O)N1 (centres unmarked),4.38
14,CCCCC(O)(c1ccccc1)C(CN1CCOCC1)c1ccccc1.Cl (centres unmarked),10.8
15,Cc1ccc(C(=O)NCC(=O)OCC(=O)NC2CCCC(C)C2C)s1 (centres unmarked),-0.309
16,Cl.Nc1cccc(CCc2nc3ccccc3[nH]2)c1,-5.05
17,COc1cc(CNC(=O)CCn2nc(C)c3c(C)n(-c4ccccc4)nc3c2=O)cc(OC)c1OC,15.4
18,Cc1onc(-c2ccccc2)c1C(=O)NC(=S)NNC(=O)c1ccc(O)cc1,9.65
19,Cc1ccc(C2C(C#N)=C(N)Oc3n[nH]c(-c4cccnc4)c32)o1 (centres unmarked),22.6
20,CCCCNC(c1ccccc1)c1ccncc1 (centres unmarked),8.56
